Measurements published in a compilation of properties of binary mixtures (doi:10.1021/je9702403).
The densities may have been worked out from excess volumes.

Test: xn = mol fraction of the nth substance listed
Conditions: 100 kPa

CC(C)O + CC#N
x1 = 1
Conditions	mass density [kg/m3]
293.15 K	785.3
303.15 K	776.8
323.15 K	758.9

CC#N + CC(C)O
mass density [kg/m3]
Conditions	293.15 K	303.15 K	313.15 K	323.15 K
x2 = 0	–	–	760.3	749.2
x2 = 0.05	781.4	770.7	759.9	748.9
x2 = 0.1	–	–	759.8	748.9
x2 = 0.15	780.9	770.4	759.8	–
x2 = 0.2	–	770.4	759.9	–
x2 = 0.25	780.9	–	760.1	749.4
x2 = 0.3	781	770.7	760.3	749.7
x2 = 0.3501	781.2	770.9	760.6	750.1
x2 = 0.4	–	–	760.9	750.5
x2 = 0.45	781.6	–	–	750.9
x2 = 0.5	781.9	–	761.7	751.4
x2 = 0.55	–	–	762.2	752
x2 = 0.5999	782.5	772.7	–	752.6
x2 = 0.6499	782.8	773.2	763.3	–
x2 = 0.7	783.2	773.7	763.9	–
x2 = 0.7499	–	774.2	–	–
x2 = 0.7999	784	774.7	765.2	755.6
x2 = 0.8499	–	775.2	765.9	756.4
x2 = 0.95	785.1	776.4	767.5	758.3

CCCCCl + CC(C)O
mass density [kg/m3]
Conditions	293.15 K	303.15 K	313.15 K	323.15 K
x2 = 0	886.5	–	864	852.5
x2 = 0.0499	881.5	870.6	–	–
x2 = 0.1	877.1	865.9	854.4	842.9
x2 = 0.15	872.7	–	850	–
x2 = 0.2	868.3	857.2	845.7	–
x2 = 0.25	864	852.9	841.4	829.9
x2 = 0.3	–	848.6	837.1	–
x2 = 0.35	855	844.1	–	–
x2 = 0.4	850.5	839.6	828.3	816.8
x2 = 0.4499	845.9	835.1	823.8	–
x2 = 0.5	841.2	830.5	–	807.9
x2 = 0.55	836.4	–	–	803.5
x2 = 0.6	831.4	820.7	809.8	798.6
x2 = 0.65	826.3	815.9	805.1	794
x2 = 0.6999	821.1	811	–	789.5
x2 = 0.75	815.6	805.7	–	784.7
x2 = 0.8	–	–	790.2	779.8
x2 = 0.85	804.2	–	785	774.7
x2 = 0.9	798.1	789.1	779.4	769.6
x2 = 0.95	791.8	–	773.8	–

CC(C)O + CCCCCl
x1 = 1
Conditions	mass density [kg/m3]
293.15 K	785.3
303.15 K	776.8
313.15 K	768
323.15 K	758.9
